The whole screen tested about 44,000 compounds, of which about 340 (0.77%) were called active. Inconclusive results (about 5%) are left out. Calls come from the whole dose curve; as a rule, active = well fitted inhibition curve with a large enough effect; inconclusive = small, poorly fitted or top-dose-only effect; inactive = flat fitted curve, though single readings scatter. Some of the results follow.
assay: Acumen qHTS Assay for Inhibitors of the mTORC1 Signaling Pathway in MEF (Tsc2-/-, p53-/-) Cells: Sytravon; conditions: phospho-rpS6 immunofluorescence/PI, 24 h; series mostly up to 38.3 µM; activity change, negative = inhibition: at the top concentration;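 note: plate controls were DMSO for no effect and rapamycin for full effect; nearly all actives have a fitted effect of over 50% in size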
Procedure, shortened: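 Immunofluorescence of rpS6 phosphorylation in Tsc2-/-, p53-/- MEFs after 24 h compound exposure, normalized to propidium iodide signal. Activity is expressed as % positive cells, thresholded with 7.5 nM rapamycin.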

Activity change, negative = inhibition, inactive:
COc1ccc(NC(=O)CNC(=O)Cn2ccc3ccccc3c2=O)c(OC)c1 -1.77%
Cc1ccc(CNC(=O)c2cnc(N3CCCC3)nc2C)cc1 0.341%
CCc1ccccc1NC(=O)c1nnn(CC(=O)Nc2c(C)cc(C)cc2C)c1N -2.41%
CN(C(=O)CSc1nc2ccc(NC(=O)c3ccco3)cc2s1)c1ccccc1 -7.67%
COc1cc(CNCCSc2nnnn2C)ccc1OCc1ccccc1 -18.1%
COc1ccc(N2CCN(C(=O)c3c(C)oc4ncn(CC(C)C)c(=O)c34)CC2)cc1 3.08%
CCn1cc(C(=O)N2CCN(c3ccccc3OC)CC2)c2cc(OC)c(OC)cc2c1=O -1.46%
CCc1ccc(NC(=O)c2ccc(CNS(=O)(=O)c3ccc4c(c3)C(C)(C)C(=O)N4C)cc2)cc1 -7.77%
CCC(Oc1ccccc1)C(=O)Nc1nnc(S(=O)(=O)N2CCCC2)s1 (stereo not given) -22.2%
CCc1ccc(OCC(=O)Nc2c(C(=O)c3ccc(Br)cc3)oc3ccccc23)cc1 9.75%
CCOc1cccc2sc(=NC(=O)c3ccc(S(=O)(=O)N4CCOCC4)cc3)n(C)c12 -17%
CCOC(=O)c1cnc2c(OC)cccc2c1N1CCN(c2ccccc2F)CC1 5.39%
CCOC(=O)c1c(NC(=O)C(C)Oc2ccccc2F)sc(C(C)=O)c1C (stereo not given) -9.91%
COc1ccc(CCNC(=O)CCCCn2c(=O)c3ccccc3n(Cc3cccc(C)c3)c2=O)cc1OC -12.9%
COc1ccc(C(=O)Nc2ccc3c(c2)CCCN3S(=O)(=O)c2ccc(C)cc2)cc1 12.6%
COc1ccc(NC(=O)c2oc3ccccc3c2NC(=O)c2cc(=O)c3ccccc3o2)cc1 3.79%
CCCCN(CCCC)CCn1cnc2c([nH]c3ccc(OC)cc32)c1=O -2.74%
COc1ccc(CNC(=O)c2ccc(-c3nc(CSc4ccccc4)c(C)o3)cc2)cc1 -4.31%
CCc1ccc(-c2nc(CN3CCCC(C(=O)NCc4ccccc4Cl)C3)c(C)o2)cc1 (stereo not given) -15.8%
Cc1ccc2c(c1)-c1nc(-c3ccccc3)cc(-c3ccccc3)c1CO2 2.55%
Cc1nn2c(=O)cc(COC(=O)c3ccccc3NC(=O)C3CCCCC3)nc2s1 9.09%
CCOc1ccc(N(CC)S(=O)(=O)N2CCCC(C(=O)NCc3ccccc3OCC)C2)cc1 (stereo not given) -17.9%
COc1cc(-c2cc3n(C)c(C)c(CCC(=O)NC4CCC(C)CC4)c(=O)n3n2)cc(OC)c1OC (stereo not given) -9.29%
O=C(NCCc1csc(-c2cccc(F)c2)n1)c1ccco1 10.4%
O=C(NC1CCCC1)c1ccc2c(c1)N(Cc1c(F)cccc1Cl)C(=O)c1ccccc1S2 0.0427%
Cc1nn(CC(=O)NC(C)c2ccccc2)c(=O)c2cc3occc3n12 (stereo not given) -0.304%
COc1cccc2c1Oc1ncccc1N(C(=O)CCC(=O)NCc1ccc(OC(C)C)cc1)C2 -0.278%
CCOC(=O)C1=C(CN2CCN(c3ccc(Cl)cc3)CC2)NC(=O)NC1c1ccc(F)cc1 (stereo not given) -7.3%
NC(=O)COc1ccc(-c2noc(COc3ccc(Cl)cc3)n2)cc1 6.37%
O=C(CSc1nc2c([nH]c3ccccc32)c(=O)n1-c1ccccc1)Nc1ccccc1C(F)(F)F -4.54%
NS(=O)(=O)c1ccc(CCNC(=O)Cn2c(=O)c3cccn3c3ccc(F)cc32)cc1 -8.88%
COc1ccc2c(c1)CC(C(=O)Nc1c(C)cc(C)cc1C)CO2 (stereo not given) -2.39%
Cc1[nH]c2ccccc2c1C1(O)C(=O)Nc2ccc(Cl)cc21 (stereo not given) -8.33%
COc1cc(CNCCCSc2nnnn2C)cc(Br)c1OC 0.926%
Cn1c(=O)n(C)c2cc(NS(=O)(=O)c3ccc(Cl)cc3)c(NCc3ccccc3)cc21 -1.88%
CCc1ccccc1-n1nnc(-c2nc(-c3ccccc3F)no2)c1C 0.927%
O=C(Nc1cccc(F)c1)C1CCN(c2nc3ccccc3nc2C(F)(F)F)CC1 6.46%
Cc1ccc(-n2c3c(c(=O)[nH]c2=O)C(NC(=O)C(C)(C)C)(C(F)(F)F)C(=O)N3)cc1 (stereo not given) -0.779%
COc1ccc(OC)c(NC(=O)CCCOc2cc(=O)n(C)c3ccccc23)c1 -5.53%
COc1cccc(NC(=O)CSC2=Nc3ccccc3C3=NC(CCC(=O)NC4CCCCC4)C(=O)N23)c1 (stereo not given) -4.25%
COc1ccc(-c2c3c(=O)n(C)c(=O)n(C)c3c3n2-c2ccccc2NC3c2ccccc2OC)cc1 (stereo not given) -6.79%
COc1ccc(NC(=O)CSc2nc3ccccc3n2CC(=O)NCc2ccc(F)cc2)cc1 -7.04%
COC(=O)c1ccc(NC(=O)c2cc3cc(C)ccc3n2C)cc1 0.543%
CCCCSCCCNC(=O)c1cn(CC)c2ccc(S(=O)(=O)N3CCOCC3)cc2c1=O -0.204%
CCOc1ccc(NC(=O)CSc2nnc3c(C)cc4ccccc4n23)cc1 -7.67%
COc1ccc(S(=O)(=O)N2CCC(C(=O)Nc3ccc(Oc4ccccc4)cc3)CC2)cc1OC -20.9%
COc1ccc(NC(=O)c2ccc(-c3nc(COc4ccccc4)c(C)o3)cc2)cc1 1.25%
COC(=O)c1ccccc1NC(=O)Cn1nc(C)c2nn(-c3ccc(Cl)cc3)c(C)c2c1=O 4.59%
CCCn1c2ccccc2c2cnn(CC(=O)Nc3ccccc3OC)c(=O)c21 -13.7%
COc1cc(NC(=O)Nc2nnc(N3CCCCC3)s2)cc(OC)c1 0.723%
Cc1nn(-c2ccccc2)c2c1N(CCCC(=O)NCc1ccc(OC(C)C)cc1)C(=O)CS2 0%
CC1CCc2nc3ccc(S(=O)(=O)N4CCC(C(=O)NCc5ccccc5Cl)CC4)cc3c(C(=O)O)c2C1 (stereo not given) -4.75%
Cc1ccc2c(CC(=O)Nc3ccc(S(=O)(=O)N4CCC(C)CC4)cc3)coc2c1 -2.59%
O=c1c2[nH]c3ccccc3c2nc(SCc2ccccc2F)n1-c1ccc(F)cc1 -1.21%
CCc1ccccc1NC(=O)Cn1nc(-c2cc(C)ccc2C)c2c(c1=O)CCCC2 0.307%
Cc1ccccc1OCC(=O)Nc1ccc(OCc2cc(=O)n3ccccc3n2)cc1 -14.3%
COc1ccc(Cl)cc1NC(=O)C1CCCN(S(=O)(=O)c2ccc3c(c2)CCCC(=O)N3)C1 (stereo not given) 1.94%
Cc1ccc(CNC(=O)c2ccc3oc(=O)n(Cc4ccccc4)c3c2)cc1 0%
O=C(CSc1nc2c(c(=O)[nH]1)CN(Cc1ccc3c(c1)OCO3)CC2)Nc1cc(F)ccc1F 0.75%
CCCCOC(=O)c1ccc(NC(=O)C2(c3cccs3)CCOCC2)cc1 -1.11%

Source: PubChem BioAssay AID493208 (National Center for Advancing Translational Sciences (NCATS), 2011)
